According to publication PMC3675019:
No constants are given. Whether binding was seen depends on the method and setting. For part of these data: In cells and extracts the contact can be indirect. Some results given as binding are weak or reduced against the parent protein; the word gives no strength. Values belong to the substance of their own block, whether it stands above or below them.

The chains behind the UniProt entries cited, without tags or fusion partners.
UniProt P22415: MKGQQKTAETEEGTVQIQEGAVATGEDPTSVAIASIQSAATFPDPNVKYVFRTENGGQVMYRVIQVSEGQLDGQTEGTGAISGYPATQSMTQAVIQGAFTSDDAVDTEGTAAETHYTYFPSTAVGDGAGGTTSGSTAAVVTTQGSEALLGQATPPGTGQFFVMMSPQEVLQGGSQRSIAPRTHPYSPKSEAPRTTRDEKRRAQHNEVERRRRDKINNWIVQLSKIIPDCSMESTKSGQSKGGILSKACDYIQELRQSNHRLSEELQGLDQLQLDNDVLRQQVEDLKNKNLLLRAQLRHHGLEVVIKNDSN
UniProt Q9P0U4: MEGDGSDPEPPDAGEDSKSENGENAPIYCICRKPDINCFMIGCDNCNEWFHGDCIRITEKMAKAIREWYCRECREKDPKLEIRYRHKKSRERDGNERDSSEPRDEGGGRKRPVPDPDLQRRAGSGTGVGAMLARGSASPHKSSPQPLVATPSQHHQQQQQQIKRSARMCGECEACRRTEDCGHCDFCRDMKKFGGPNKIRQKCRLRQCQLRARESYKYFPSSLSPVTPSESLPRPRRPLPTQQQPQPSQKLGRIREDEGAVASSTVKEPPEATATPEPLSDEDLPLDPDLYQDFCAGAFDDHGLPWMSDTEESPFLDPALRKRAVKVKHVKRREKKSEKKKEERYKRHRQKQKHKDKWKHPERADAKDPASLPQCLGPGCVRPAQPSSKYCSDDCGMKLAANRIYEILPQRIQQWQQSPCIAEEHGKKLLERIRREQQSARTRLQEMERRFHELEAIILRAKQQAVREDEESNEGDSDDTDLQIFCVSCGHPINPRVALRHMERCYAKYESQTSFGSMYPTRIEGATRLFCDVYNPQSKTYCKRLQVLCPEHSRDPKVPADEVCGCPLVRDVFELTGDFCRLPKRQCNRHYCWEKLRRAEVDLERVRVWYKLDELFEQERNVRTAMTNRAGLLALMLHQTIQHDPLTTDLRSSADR
UniProt Q03164: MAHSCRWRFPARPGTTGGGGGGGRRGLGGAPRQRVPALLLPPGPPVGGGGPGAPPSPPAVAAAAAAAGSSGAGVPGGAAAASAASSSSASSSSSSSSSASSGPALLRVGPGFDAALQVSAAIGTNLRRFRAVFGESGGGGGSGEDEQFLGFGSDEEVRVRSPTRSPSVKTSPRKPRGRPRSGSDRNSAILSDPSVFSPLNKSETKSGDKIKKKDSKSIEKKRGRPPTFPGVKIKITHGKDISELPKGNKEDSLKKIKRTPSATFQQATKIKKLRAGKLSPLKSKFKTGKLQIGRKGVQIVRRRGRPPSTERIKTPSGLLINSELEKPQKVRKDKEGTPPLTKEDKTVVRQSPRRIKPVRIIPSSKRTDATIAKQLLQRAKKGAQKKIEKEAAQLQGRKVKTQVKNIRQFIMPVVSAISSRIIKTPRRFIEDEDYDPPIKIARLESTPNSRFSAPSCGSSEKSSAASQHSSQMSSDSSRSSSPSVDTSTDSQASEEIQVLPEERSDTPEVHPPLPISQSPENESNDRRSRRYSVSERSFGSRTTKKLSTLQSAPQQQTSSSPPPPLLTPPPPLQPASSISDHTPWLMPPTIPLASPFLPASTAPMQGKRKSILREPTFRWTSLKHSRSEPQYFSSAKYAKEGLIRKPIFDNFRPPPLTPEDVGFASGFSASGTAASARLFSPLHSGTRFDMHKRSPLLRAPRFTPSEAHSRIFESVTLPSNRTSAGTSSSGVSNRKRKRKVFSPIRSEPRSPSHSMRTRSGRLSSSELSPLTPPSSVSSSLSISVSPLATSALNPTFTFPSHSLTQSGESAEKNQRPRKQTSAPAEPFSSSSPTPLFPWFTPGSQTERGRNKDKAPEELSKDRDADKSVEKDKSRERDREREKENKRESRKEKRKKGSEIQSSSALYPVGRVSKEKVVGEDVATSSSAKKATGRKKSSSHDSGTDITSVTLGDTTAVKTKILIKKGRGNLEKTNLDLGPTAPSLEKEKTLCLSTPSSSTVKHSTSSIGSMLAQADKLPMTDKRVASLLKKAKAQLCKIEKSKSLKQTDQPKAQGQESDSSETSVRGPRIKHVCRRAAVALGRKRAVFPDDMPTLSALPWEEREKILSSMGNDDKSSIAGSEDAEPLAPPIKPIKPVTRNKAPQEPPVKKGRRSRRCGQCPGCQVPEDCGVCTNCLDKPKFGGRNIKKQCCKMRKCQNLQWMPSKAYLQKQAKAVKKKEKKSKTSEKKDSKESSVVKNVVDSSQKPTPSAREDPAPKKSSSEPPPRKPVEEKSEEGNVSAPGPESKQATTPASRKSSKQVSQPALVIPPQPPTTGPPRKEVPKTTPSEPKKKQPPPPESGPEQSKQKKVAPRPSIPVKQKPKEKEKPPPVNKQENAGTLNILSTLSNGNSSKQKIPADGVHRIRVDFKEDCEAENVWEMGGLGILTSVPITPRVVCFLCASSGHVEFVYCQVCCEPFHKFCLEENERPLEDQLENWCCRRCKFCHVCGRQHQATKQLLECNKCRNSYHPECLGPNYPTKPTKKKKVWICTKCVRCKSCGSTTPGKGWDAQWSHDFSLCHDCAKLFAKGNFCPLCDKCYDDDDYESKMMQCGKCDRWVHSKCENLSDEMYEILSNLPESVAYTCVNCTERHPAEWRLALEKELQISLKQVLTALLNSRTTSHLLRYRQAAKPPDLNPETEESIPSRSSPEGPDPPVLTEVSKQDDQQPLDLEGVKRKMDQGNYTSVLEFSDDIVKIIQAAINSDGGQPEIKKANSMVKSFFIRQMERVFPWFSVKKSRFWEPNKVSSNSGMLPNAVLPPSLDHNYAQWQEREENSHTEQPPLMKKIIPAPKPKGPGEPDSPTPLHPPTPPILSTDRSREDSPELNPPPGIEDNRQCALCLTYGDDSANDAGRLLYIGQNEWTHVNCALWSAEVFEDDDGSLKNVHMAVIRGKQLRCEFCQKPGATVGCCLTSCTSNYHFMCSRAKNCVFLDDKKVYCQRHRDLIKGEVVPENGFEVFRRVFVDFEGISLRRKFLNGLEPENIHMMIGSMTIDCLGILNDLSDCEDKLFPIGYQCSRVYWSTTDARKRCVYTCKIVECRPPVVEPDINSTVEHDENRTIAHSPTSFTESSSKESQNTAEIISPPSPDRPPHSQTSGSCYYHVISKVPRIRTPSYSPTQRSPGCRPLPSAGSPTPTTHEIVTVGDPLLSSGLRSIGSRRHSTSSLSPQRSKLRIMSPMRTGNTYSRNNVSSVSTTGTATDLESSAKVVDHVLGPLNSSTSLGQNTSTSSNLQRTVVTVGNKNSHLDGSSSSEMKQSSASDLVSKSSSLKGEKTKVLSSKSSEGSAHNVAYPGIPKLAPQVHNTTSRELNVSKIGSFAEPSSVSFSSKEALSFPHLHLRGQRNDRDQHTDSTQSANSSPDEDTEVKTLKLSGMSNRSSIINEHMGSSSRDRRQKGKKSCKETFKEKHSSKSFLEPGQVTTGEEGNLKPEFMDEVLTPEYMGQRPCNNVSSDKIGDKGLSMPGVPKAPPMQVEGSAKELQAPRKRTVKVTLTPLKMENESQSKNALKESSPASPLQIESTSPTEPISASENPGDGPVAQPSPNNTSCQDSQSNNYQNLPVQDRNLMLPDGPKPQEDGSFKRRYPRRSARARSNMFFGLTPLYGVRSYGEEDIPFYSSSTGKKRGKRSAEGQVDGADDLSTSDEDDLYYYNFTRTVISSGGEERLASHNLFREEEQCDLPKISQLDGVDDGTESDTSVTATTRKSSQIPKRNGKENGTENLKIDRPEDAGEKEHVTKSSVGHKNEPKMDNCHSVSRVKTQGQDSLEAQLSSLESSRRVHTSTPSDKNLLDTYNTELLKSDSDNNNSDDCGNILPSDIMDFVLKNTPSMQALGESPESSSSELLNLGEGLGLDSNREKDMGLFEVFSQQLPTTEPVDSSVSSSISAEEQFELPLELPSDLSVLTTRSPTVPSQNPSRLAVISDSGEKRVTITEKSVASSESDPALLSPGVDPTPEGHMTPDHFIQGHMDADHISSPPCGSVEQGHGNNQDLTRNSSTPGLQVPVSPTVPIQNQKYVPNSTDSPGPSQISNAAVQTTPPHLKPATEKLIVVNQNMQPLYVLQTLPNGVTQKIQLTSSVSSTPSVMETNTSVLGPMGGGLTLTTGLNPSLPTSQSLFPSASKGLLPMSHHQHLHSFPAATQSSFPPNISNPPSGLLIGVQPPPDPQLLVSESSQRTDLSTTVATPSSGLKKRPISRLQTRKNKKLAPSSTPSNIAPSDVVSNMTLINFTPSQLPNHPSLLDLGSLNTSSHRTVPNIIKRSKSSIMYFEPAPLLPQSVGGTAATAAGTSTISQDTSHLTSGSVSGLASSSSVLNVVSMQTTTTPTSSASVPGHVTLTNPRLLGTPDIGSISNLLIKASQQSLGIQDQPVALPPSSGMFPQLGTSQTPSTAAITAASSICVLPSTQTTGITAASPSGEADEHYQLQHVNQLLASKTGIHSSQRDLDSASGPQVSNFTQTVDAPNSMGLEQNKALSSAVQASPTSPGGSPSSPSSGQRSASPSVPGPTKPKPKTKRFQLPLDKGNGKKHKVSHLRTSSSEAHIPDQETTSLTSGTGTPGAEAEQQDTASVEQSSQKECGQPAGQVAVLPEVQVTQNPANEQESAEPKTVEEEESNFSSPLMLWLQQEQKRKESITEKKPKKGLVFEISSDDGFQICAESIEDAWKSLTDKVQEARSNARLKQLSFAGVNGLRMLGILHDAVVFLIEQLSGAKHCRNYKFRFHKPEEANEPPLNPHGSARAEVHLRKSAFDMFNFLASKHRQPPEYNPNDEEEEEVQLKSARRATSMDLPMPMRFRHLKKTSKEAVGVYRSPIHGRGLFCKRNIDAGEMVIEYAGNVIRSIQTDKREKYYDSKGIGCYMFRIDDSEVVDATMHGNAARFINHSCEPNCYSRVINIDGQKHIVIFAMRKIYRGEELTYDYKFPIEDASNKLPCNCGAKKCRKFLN

How the values were obtained:
GST-USF1 (human) [1] = molecular target: GST-USF1 (human) (UniProt P22415); assay: pull-down; 35S-labeled ASH2L incubated with GST and GST-USF1 fusion proteins pre-absorbed to glutathione-Sepharose beads; bound ASH2L seen by fluorography; only the target purified
Flag-tagged USF1 (human) = Flag-tagged USF1 (human) (UniProt P22415); assay: co-IP; extracts of K562 cells that overexpress Flag-tagged USF1; co-precipitated proteins seen by blot
[2] = molecular target: hSET1A (human (endogenous in K562)) (UniProt O15047); assay: as above
GST-USF1 (human) [3] = molecular target: GST-USF1 (human) (UniProt P22415); assay: pull-down; GST-USF1 pre-absorbed to glutathione-sepharose beads, incubated with each single Flag-tagged component of the hSET1A complex purified from SF9 cells; PBS, 10% glycerol, 1% Triton X-100, 1 mM EDTA, 1 mM DTT, RT, 1 hour; western blot with Flag antibody; both purified
GST-USF1 (human) [4] = molecular target: GST-USF1 (human) (UniProt P22415); assay: pull-down; GST-USF1 pre-absorbed to glutathione-sepharose beads, incubated with the purified, baculovirus reconstituted hSET1A complex with ASH2L; PBS, 10% glycerol, 1% Triton X-100, 1 mM EDTA, 1 mM DTT, RT, 1 hour; western blot; both purified

binding (GST-USF1 (human) [1]): binds
Substance: 35S-labeled ASH2L (from UniProt Q9UBL3 1-628)

binding (Flag-tagged USF1 (human)): no binding
binding [2]: binds
Substance: CFP1 (from UniProt Q9P0U4 1-656)

binding (GST-USF1 (human) [3]): binds
binding (GST-USF1 (human) [4]): binds
Substance: Flag-tagged ASH2L (from UniProt Q9UBL3 1-628)

binding (Flag-tagged USF1 (human)): no binding
Substance: MLL1 (from UniProt Q03164 1-3969) (enzyme)
